The results in this text go back to PubChem BioAssay AID1745853 (National Center for Advancing Translational Sciences (NCATS), 2022).

SMILES strings stand for the structures. The list shows a part of the results. Further columns of the screen follow, without active or inactive calls.

What all share (assay): Primary Screen for Target Class Profiling of Small Molecule Inhibitors of Methyltransferases
Assay [1] has as its target Glycine N-methyltransferase (Homo sapiens) (UniProt Q14749). The following applies: purified enzyme, MTase-Glo SAH luminescence; measured here: GNMT inhibition; at 40 µM; stronger effect = lower value. Summed up:
(§1)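 Each enzyme was reacted with SAM and its substrate, with compounds tested once at 40 uM; SAH formed was read by MTase-Glo luminescence.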

Assay [2] deals with Guanidinoacetate N-methyltransferase (Homo sapiens) (UniProt Q14353). The following applies: purified enzyme, MTase-Glo SAH luminescence; measured here: GAMT inhibition; at 40 µM; stronger effect = lower value. Put shortly: as §1
Assay [3] concerns the target Histamine N-methyltransferase (Homo sapiens) (UniProt P50135). The following applies: purified enzyme, MTase-Glo SAH luminescence; measured here: HNMT inhibition; at 40 µM; stronger effect = lower value. Put shortly: as §1
For assay [4], the target named is Nicotinamide N-methyltransferase (Homo sapiens) (UniProt P40261). The following applies: purified enzyme, MTase-Glo SAH luminescence; measured here: NNMT inhibition; at 40 µM; stronger effect = lower value. Put shortly: as §1
Assay [5] has as its target Phenylethanolamine N-methyltransferase (Homo sapiens) (UniProt P11086). The following applies: purified enzyme, MTase-Glo SAH luminescence; measured here: PNMT inhibition; at 40 µM; stronger effect = lower value. Put shortly:
as §1
% is set by controls: 0 for no effect and ±100 for the full control effect.

For `CCCn1c(=O)c2ccc(C(=O)NC3CCCC3)cc2n2c(=O)n(CC(=O)c3ccc(C)cc3C)nc12`, the activity change, negative = inhibition in assay [1] was 3.46%; in assay [2] it was 2.4%; in assay [3], 5.89%; in assay [4], -1.29%; in assay [5], 0.854%.
For `CC(/C=C/C1(O)C(C)CC(O)CC1(C)C)OC1OC(CO)C(O)C(O)C1O` (stereo not given), in that order: 0.065%, 8.27%, 13.5%, -3.33% and 5.4%.
For `CCCn1c(=O)c2cc(F)ccc2n2c(SCc3ccc(F)cc3Cl)nnc12`, in that order: -9.32%, 0.035%, 2.39%, -11.9% and 1.12%.
On to `CN1CCN(CCOc2cc(OC3CCOCC3)c3c(Nc4c(Cl)ccc5c4OCO5)ncnc3c2)CC1`, for which the activity change, negative = inhibition was -29.3% in assay [1]; -4.15% in assay [2]; -81.2% in assay [3]; -50.4% in assay [4]; -20.4% in assay [5].
For `CC1OC(O[C@H]2CC[C@@]3(C)C(CC[C@]4(C)C3CC=C3C5CC(C)(C)CC[C@]5(C(=O)OC5OC(CO)C(OC6OCC(OC7OCC(O)C(O)C7O)C(O)C6O)C(O)C5O)CC[C@]34C)C2(C)C)C(O)C(O)C1OC1OC(CO)C(O)C(OC2OC(CO)C(O)C(O)C2O)C1O` (stereo not given in full), in that order: -2.63%, -1.94%, -5.17%, -7.36% and 1.15%.
For `O=C(CCc1nnn2c1CN(C(=O)NCc1ccccc1)CC2)N1CCCC1`, in that order: 2.05%, -0.796%, -0.86%, -0.62% and -10.3%.
As for `CC1CCN(S(=O)(=O)c2ccc3c(ccn3CC(=O)NCc3ccccc3Cl)c2)CC1`, the activity change, negative = inhibition in assay [1] was 2.24%; in assay [2] it was 0%; in assay [3] it was 2.49%; in assay [4], -1.75%; in assay [5], 1.27%.
With `O=C(Cn1c(=O)oc2cc(S(=O)(=O)NCc3ccccc3)ccc21)NCc1ccc(Cl)cc1`, the activity change, negative = inhibition in assay [1] is -6.1%; in assay [2], 0.652%; in assay [3], -8.26%; in assay [4], -14.9%; in assay [5] it was -5.47%.
For `O=C(O)c1ccc(OC2OC(CO)C(O)C(O)C2O)cc1` (stereo not given), in that order: 3.55%, 0.517%, 10.6%, -13.3% and 5.21%.
For the molecule `O=C(NCC1CN(c2ccc(N3CCOCC3=O)cc2)C(=O)O1)c1ccc(Cl)s1` (stereo not given), the activity change, negative = inhibition is -6.46% in assay [1]; -7.4% in assay [2]; -0.946% in assay [3]; -20.1% in assay [4]; -5.34% in assay [5].
For `C[C@@H](N)c1ccc(C(=O)Nc2ccnc3[nH]ccc23)cc1` the same measures were 2.69%, 4.63%, 4.89%, -14.8% and 4.26%.
For the molecule `COc1ccccc1CNC(=O)c1cc2n(n1)CC(C)(C(=O)NC1CCCCC1)N(C)C2=O` (stereo not given), the activity change, negative = inhibition in assay [1] is 6.95%; in assay [2], 0%; in assay [3] it was 2.83%; in assay [4], 8.81%; in assay [5], 2.73%.
Consider `Nc1ccc(S(=O)(=O)Nc2ccnn2-c2ccccc2)cc1`, for which the activity change, negative = inhibition in assay [1] was -2.27%; in assay [2], 6.19%; in assay [3], 0.111%; in assay [4], -3.25%; in assay [5], 5.14%.
Regarding `O=C(O)c1ccc(CN2CCC(CN[C@@H]3C[C@H]3c3ccccc3)CC2)cc1`, the activity change, negative = inhibition is -3.43% in assay [1]; 4.38% in assay [2]; -2.29% in assay [3]; -16.1% in assay [4]; -9.54% in assay [5].
Regarding `CC(C)c1nnc(-c2ccc(-c3ccccc3)nc2)n1-c1cccc2nonc12`, the activity change, negative = inhibition in assay [1] was 4%; in assay [2], 5.84%; in assay [3], 11.8%; in assay [4], -19.3%; in assay [5] it was -4.58%.
For `COc1ccc(CN2C(=O)c3cc(-c4ccco4)nn3CC2(C)C(=O)NC2CCCCC2)cc1` (stereo not given) the same measures were -1.92%, 5.29%, 3.66%, -8.13% and -1.14%.
